Biological target: the molecule itself
Experiment: crystal structure; EBP with U18666A (3.2 Å) or tamoxifen (3.5 Å); space group P2(1)2(1)2; hanging drop, 20 °C; each asymmetric unit contains one dimer and one monomer

B1: human EBP (3-β-hydroxysteroid-Δ8,Δ7-isomerase, Emopamil-Binding Protein), N-terminal Strep-tag, crystallised (enzyme)
chain: not shown
notes: residues 1-6, 53-59 and 220-230 were not visible in the electron density map; Crystallised with 10 uM U18666A or tamoxifen added in all purification steps; Selenomethionine-labelled protein was used for phasing; also called Strep-EBP; human sterol isomerase; source: HEK-293S GnTI- cells, baculovirus-mediated transduction, purified (Strep-Tactin, Superdex 200 Increase)
B1 was tested, and the “stoichiometry N” value was 2.
